# In PubChem BioAssay (Tox21):
# This list was built around the results that the source calls inconclusive (neither active nor inactive); the mix of calls is not that of the screen. For part of these data: A potency beside an inconclusive call is a rough fit, not a confirmed value. Activity calls are given as the source filed them. Unless noted, the call rests on the fitted dose curve; in most records, active means well fitted curve in the direction sought with a large enough effect in the repeat runs; inconclusive means weak or mixed curves; inactive means no such curve, though single readings can be large; an effect the other way counts as inactive or inconclusive.
# Assays:
# [1] = qHTS assay to identify small molecule that activate the aryl hydrocarbon receptor (AhR) signaling pathway - cell viability counter screen (AID 743086); further: potency means the concentration at half of the fitted maximal effect; nearly all actives have a fitted effect of over 45% in size
# Method in brief: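 Cytotoxicity counter screen: CellTiter-Fluor signal (30 min, 37 C) in 4000 HepG2 cells/well carrying the DRE-luciferase reporter, following 24 h compound exposure at 37 C.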
# [2] = qHTS assay for small molecule agonists of the antioxidant response element (ARE) signaling pathway (AID 743202; active means well fitted activation curve with a large enough effect in the signal ratio in the repeat runs, not every such curve was filed as active; inconclusive means weak or mixed curves, or effect the other way; inactive means no such curve, though single readings can be large or run the other way; the % refers to the signal ratio; further: potency means the concentration at half of the fitted maximal effect; on activation: on the % scale 0 is the no-effect control and ±100 the full control effect); settings: HepG2 ARE-bla reporter, beta-lactamase FRET, 16 h
# Method in brief: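 Quantitative high-throughput format in HepG2 cells bearing an integrated ARE-beta-lactamase reporter. Compound exposure lasted 16 h at 37 C, and fluorescence was read 2 h after adding LiveBLAzer B/G substrate at room temperature.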
# [3] = target: Bile acid receptor (Homo sapiens) (UniProt Q96RI1); assay: qHTS assay to identify small molecule agonists of the farnesoid-X-receptor (FXR) signaling pathway (AID 743220; active means well fitted activation curve with a large enough effect in the signal ratio in the repeat runs, not every such curve was filed as active; inconclusive means weak or mixed curves, or effect the other way; the % refers to the signal ratio; further: on the % scale 0 is the no-effect control and ±100 the full control effect); settings: HEK293T FXR-UAS-bla, beta-lactamase FRET ratio, 16 h; activation: at 62.6 µM (top of the series) unless noted
# UniProt Q96RI1, sequence (Q96RI1 whole entry, looked up): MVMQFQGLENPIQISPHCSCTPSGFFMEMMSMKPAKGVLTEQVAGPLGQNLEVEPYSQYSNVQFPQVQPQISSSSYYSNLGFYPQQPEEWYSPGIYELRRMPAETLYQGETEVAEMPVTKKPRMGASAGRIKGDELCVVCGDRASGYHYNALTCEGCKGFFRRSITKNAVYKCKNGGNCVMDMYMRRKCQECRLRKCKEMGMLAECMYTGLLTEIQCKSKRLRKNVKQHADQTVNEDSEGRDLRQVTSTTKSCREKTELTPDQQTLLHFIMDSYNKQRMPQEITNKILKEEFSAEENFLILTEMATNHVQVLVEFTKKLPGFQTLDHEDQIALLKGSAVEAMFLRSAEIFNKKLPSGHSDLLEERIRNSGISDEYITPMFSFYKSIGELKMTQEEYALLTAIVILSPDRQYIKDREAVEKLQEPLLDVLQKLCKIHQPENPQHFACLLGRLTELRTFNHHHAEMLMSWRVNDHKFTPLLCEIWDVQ
# Method in brief: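 Beta-lactamase reporter under UAS control in GeneBLAzer FXR HEK 293T cells (5000/well) measured with LiveBLAzer FRET substrate after 2 h at room temperature. Compound exposure lasted 16 h at 37C.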
# [4] = target: Peroxisome proliferator-activated receptor gamma (Homo sapiens) (UniProt P37231); assay: qHTS assay to identify small molecule agonists of the peroxisome proliferator-activated receptor gamma (PPARg) signaling pathway (AID 743094; active means well fitted activation curve with a large enough effect in the signal ratio in the repeat runs, not every such curve was filed as active; inconclusive means weak or mixed curves, or effect the other way; inactive means no such curve, though single readings can be large or run the other way; the % refers to the signal ratio; further: potency means the concentration at half of the fitted maximal effect); settings: HEK293H PPARg-UAS-bla, beta-lactamase FRET ratio, 17 h; activation: at 57 µM (top of the series) unless noted
# UniProt P37231, sequence (P37231 whole entry, looked up): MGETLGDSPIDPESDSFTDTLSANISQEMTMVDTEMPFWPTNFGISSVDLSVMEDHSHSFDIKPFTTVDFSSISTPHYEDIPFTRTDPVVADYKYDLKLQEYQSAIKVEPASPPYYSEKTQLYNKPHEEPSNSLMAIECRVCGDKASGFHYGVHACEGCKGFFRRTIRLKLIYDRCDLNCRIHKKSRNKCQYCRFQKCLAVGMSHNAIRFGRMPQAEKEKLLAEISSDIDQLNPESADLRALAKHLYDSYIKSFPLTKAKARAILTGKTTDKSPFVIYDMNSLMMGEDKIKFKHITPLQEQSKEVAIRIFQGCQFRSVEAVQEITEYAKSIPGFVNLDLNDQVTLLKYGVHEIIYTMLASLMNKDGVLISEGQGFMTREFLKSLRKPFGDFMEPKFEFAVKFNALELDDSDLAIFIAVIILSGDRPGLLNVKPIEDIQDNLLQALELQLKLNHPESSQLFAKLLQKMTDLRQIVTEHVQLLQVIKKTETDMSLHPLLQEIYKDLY
# Method in brief: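 Following 5 h plating at 37C, PPARg-bla HEK293H cells receive compound or DMSO for 17 h; fluorescence intensity is recorded after LiveBLAzer B/G loading for 1 h at room temperature.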
# [5] = target: Peroxisome proliferator-activated receptor gamma (Homo sapiens) (UniProt P37231); assay: qHTS assay to identify small molecule antagonists of the peroxisome proliferator-activated receptor gamma (PPARg) signaling pathway (AID 743191; calls by dose curve; further: nearly all actives have a fitted effect of over 30% in size; further: potency means the concentration at half of the fitted maximal effect); settings: HEK293H PPARg-UAS-bla, beta-lactamase ratio, antagonist, 17 h
# Method in brief: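 Beta-lactamase reporter under UAS control in HEK293H PPARg-bla cells; compound treatment 17 h at 37C. Read-out: fluorescence intensity after 1 h room-temperature incubation with LiveBLAzer B/G FRET substrate.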
# [6] = qHTS assay to identify small molecule antagonists of the peroxisome proliferator-activated receptor gamma (PPARg) signaling pathway - cell viability counter screen (AID 743194); settings: PPARg-bla HEK293H viability, CellTiter-Glo luminescence, 17 h, co-treated with 50 nM rosiglitazone; activity change, negative = cytotoxicity: at 62.6 µM (top of the series); further: nearly all actives have a fitted effect of over 55% in size; further: potency means the concentration at half of the fitted maximal effect
# Method in brief: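 Viability was measured as CellTiter-Glo luminescence in GeneBLAzer PPARg UAS-bla HEK293H cells. These cells had been exposed 17 h at 37 C to compounds together with rosiglitazone at 50 nM final, with the beta-lactamase readout taken in the same wells.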
# [7] = qHTS assay for small molecule activators of the heat shock response signaling pathway - cell viability counter screen (AID 743209); settings: HSE-bla HeLa viability, CellTiter-Glo luminescence, 5 h; activity change, negative = cytotoxicity: at 62.6 µM (top of the series); further: potency means the concentration at half of the fitted maximal effect; nearly all actives have a fitted effect of over 50% in size
# Method in brief: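 Counter screen for cytotoxicity in HeLa HSE-bla reporter cells. Treatment was 5 h at 37 C; viability was detected by luminescent ATP assay (CellTiter-Glo) in the same wells as the beta-lactamase read.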
# [8] = qHTS assay for small molecule activators of the heat shock response signaling pathway (AID 743210; active means well fitted activation curve with a large enough effect in the signal ratio in the repeat runs, with a control signal flat, not every such curve was filed as active; inconclusive means weak or mixed curves; the % refers to the signal ratio; further: potency means the concentration at half of the fitted maximal effect); settings: HeLa HSE-bla reporter, beta-lactamase ratio, 5 h; activation: at 62.6 µM (top of the series)
# Method in brief: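 HeLa HSE-bla cells, overnight plating; cpd in DMSO 5 h, 37 C; LiveBLAzer B/G FRET substrate 2.5 h RT; fluorescence intensity read.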
# [9] = qHTS assay to identify small molecule agonists of the peroxisome proliferator-activated receptor delta (PPARd) signaling pathway - cell viability counter screen (AID 743211); settings: PPARd-bla HEK293H viability, CellTiter-Glo luminescence, 17 h; activity change, negative = cytotoxicity: at 62.6 µM (top of the series); further: potency means the concentration at half of the fitted maximal effect; nearly all actives have a fitted effect of over 55% in size
# Method in brief: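 PPARd-bla HEK293H cells (3000/well) were pre-incubated 5 h at 37 C, then exposed to compound for 17 h at 37 C. After 2 h with LiveBLAzer substrate, CellTiter-Glo was added to the same wells; luminescence read after 30 min at room temperature.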
# [10] = qHTS assay to identify small molecule antagonists of the peroxisome proliferator-activated receptor delta (PPARd) signaling pathway - cell viability counter screen (AID 743213); settings: PPARd-bla HEK293H viability, CellTiter-Glo luminescence, 17 h; viability change, negative = cytotoxic: at 62 µM (top of the series) unless noted; further: potency means the concentration at half of the fitted maximal effect; nearly all actives have a fitted effect of over 50% in size
# Method in brief: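 Cytotoxicity counter screen: CellTiter-Glo luminescence read 30 min after addition, in the same wells as the reporter assay. There, PPARd UAS-bla HEK293H cells (3000/well) were treated 17 h at 37 C with compound and 300 nM L165041.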
# [11] = target: Vitamin D3 receptor (Homo sapiens) (UniProt P11473); assay: qHTS assay to identify small molecule agonists of the vitamin D receptor (VDR) signaling pathway (AID 743222; calls by dose curve; further: potency means the concentration at half of the fitted maximal effect); settings: HEK293T VDR-UAS-bla, beta-lactamase FRET ratio, 16 h; activation: at 63.5 µM (top of the series) unless noted
# UniProt P11473, sequence (P11473 whole entry, looked up): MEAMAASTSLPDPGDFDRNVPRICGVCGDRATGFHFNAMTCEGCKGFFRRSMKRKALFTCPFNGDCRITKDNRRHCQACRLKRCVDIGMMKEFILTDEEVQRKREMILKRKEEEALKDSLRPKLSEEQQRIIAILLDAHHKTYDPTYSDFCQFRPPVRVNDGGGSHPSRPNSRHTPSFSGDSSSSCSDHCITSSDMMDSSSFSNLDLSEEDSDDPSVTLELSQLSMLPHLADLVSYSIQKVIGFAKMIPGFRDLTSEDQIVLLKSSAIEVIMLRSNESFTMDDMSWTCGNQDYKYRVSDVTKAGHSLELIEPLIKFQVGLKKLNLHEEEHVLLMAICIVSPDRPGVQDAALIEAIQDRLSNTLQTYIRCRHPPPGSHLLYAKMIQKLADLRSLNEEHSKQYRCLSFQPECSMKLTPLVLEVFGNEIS
# Method in brief: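 VDR-bla cells were seeded, left 4 h, treated with compounds in DMSO for 16 h, incubated 2 h at RT with B/G FRET substrate, and read for fluorescence.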
# [12] = target: Vitamin D3 receptor (Homo sapiens) (UniProt P11473); assay: qHTS assay to identify small molecule antagonists of the vitamin D receptor (VDR) signaling pathway (AID 743223; active means well fitted inhibition curve with a large enough effect in the signal ratio in the repeat runs, not every such curve was filed as active; inconclusive means weak or mixed curves, or effect the other way; inactive means no such curve, though single readings can be large or run the other way; the % refers to the signal ratio; further: on the % scale 0 is the no-effect control and ±100 the full control effect); settings: VDR-UAS-bla HEK293T, beta-lactamase FRET ratio, 16 h; activity change, negative = inhibition: at 61 µM (top of the series) unless noted
# Method in brief: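 VDR-bla cells were treated with compound plus 3 nM final 1alpha,25-dihydroxyvitamin D3 for 16 h at 37C. Beta-lactamase reporter read by B/G FRET substrate fluorescence after 2 h at room temperature. qHTS format.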
# [13] = qHTS assay to identify small molecule agonists of the farnesoid-X-receptor (FXR) signaling pathway - cell viability counter screen (AID 743218); settings: FXR-bla HEK293T viability, CellTiter-Glo luminescence, 16 h; viability change, negative = cytotoxic: at 62.6 µM (top of the series) unless noted; further: nearly all actives have a fitted effect of over 45% in size; further: potency means the concentration at half of the fitted maximal effect
# Method in brief: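 After 16 h at 37 C with test compounds, FXR-bla HEK 293T cells were given LiveBLAzer B/G substrate for 2 h at RT and then CellTiter-Glo; luminescence was taken after 30 min.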
# [14] = qHTS assay for small molecule agonists of the antioxidant response element (ARE) signaling pathway - cell viability counter screen (AID 743203; calls by dose curve; further: potency means the concentration at half of the fitted maximal effect; nearly all actives have a fitted effect of over 55% in size); settings: ARE-bla HepG2 viability, CellTiter-Glo luminescence, 16 h; viability change, negative = cytotoxic: at 73.3 µM (top of the series)
# Method in brief: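 Compounds in DMSO were pinned onto ARE-bla HepG2 cells plated 5 hrs earlier at 2,000 cells/well. Sixteen hours later at 37C/5% CO2, CellTiter-Glo was added and luminescence measured after 30 min at room temperature.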
# [15] = target: Peroxisome proliferator-activated receptor delta (Homo sapiens) (UniProt Q03181); assay: qHTS assay to identify small molecule agonists of the peroxisome proliferator-activated receptor delta (PPARd) signaling pathway (AID 743212; calls by dose curve; further: potency means the concentration at half of the fitted maximal effect); settings: HEK293H PPARd-UAS-bla, beta-lactamase FRET ratio, 17 h; activation: at 62.6 µM (top of the series) unless noted
# UniProt Q03181, sequence (Q03181 whole entry, looked up): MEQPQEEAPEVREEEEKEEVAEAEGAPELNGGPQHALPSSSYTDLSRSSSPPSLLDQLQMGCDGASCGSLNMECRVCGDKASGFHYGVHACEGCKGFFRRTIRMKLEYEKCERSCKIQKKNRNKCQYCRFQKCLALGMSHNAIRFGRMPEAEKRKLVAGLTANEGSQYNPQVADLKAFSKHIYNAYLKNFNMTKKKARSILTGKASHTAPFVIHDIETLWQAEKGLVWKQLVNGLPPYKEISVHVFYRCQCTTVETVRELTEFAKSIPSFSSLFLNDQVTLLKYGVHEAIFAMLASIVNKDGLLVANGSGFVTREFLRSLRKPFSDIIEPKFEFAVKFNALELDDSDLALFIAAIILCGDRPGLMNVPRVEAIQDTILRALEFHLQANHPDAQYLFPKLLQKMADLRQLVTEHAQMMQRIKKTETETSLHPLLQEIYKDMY
# Method in brief: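 HEK293H PPARd-bla cells; 5 h preincubation 37 C/5% CO2; compound (DMSO) 37 C; LiveBLAzer B/G FRET substrate 2 h RT; fluorescence intensity.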
# [16] = target: Peroxisome proliferator-activated receptor delta (Homo sapiens) (UniProt Q03181); assay: qHTS assay to identify small molecule antagonists of the peroxisome proliferator-activated receptor delta (PPARd) signaling pathway (AID 743215; active means well fitted inhibition curve with a large enough effect in the signal ratio in the repeat runs, not every such curve was filed as active; inconclusive means weak or mixed curves, or effect the other way; inactive means no such curve, though single readings can be large or run the other way; the % refers to the signal ratio;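 further: cells stimulated with agonist L165041 at 300 nM final during compound exposure; on the % scale 0 is the no-effect control and ±100 the full control effect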); settings: HEK293H PPARd-UAS-bla, beta-lactamase FRET ratio, antagonist, 17 h; ratio activity, negative = inhibition: at 62 µM (top of the series) unless noted
# Method in brief: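 With L165041 present at 300 nM final, compounds were incubated 17 h at 37 C on PPARd UAS-bla HEK293H cells. A FRET-based beta-lactamase substrate was then applied for 2 h at room temperature and fluorescence intensity recorded.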
# [17] = target: Bile acid receptor (Homo sapiens) (UniProt Q96RI1); assay: qHTS assay to identify small molecule antagonists of the farnesoid-X-receptor (FXR) signaling pathway (AID 743217; active means well fitted inhibition curve with a large enough effect in the signal ratio in the repeat runs, not every such curve was filed as active; inconclusive means weak or mixed curves, or effect the other way; inactive means no such curve, though single readings can be large or run the other way; the % refers to the signal ratio; further: potency means the concentration at half of the fitted maximal effect); settings: HEK293T FXR-UAS-bla, beta-lactamase ratio, CDCA-stimulated, 16 h; activity change, negative = inhibition: at 62.6 µM (top of the series) unless noted
# Method in brief: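 In this cell-based antagonist screen, inhibition of CDCA-driven (50 uM final) UAS-beta-lactamase expression in HEK 293T cells was measured by FRET fluorescence following 16 h compound exposure at 37 °C.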
# [18] = activation: at 73.3 µM (top of the series) unless noted
# [19] = ratio activity, negative = inhibition: at 62.6 µM (top of the series) unless noted
# Tags describe the fitted curve by direction and shape or compound fluorescence and quenching.
structure (smiles),measurement,setting,value
Nc1ccc2cc(S(=O)(=O)O)ccc2c1,Potency,[1],"inconclusive: 30.6 µM [rising, full curve, poor fit]"
same,activation,[2]; [18],inconclusive: 11.9%
same,Potency,[3],inactive
O=Cc1cc(O)ccc1Br,Potency,[4],inactive
same,Potency,[5]; [19],"inconclusive: 27.9 µM [rising, full curve, poor fit]"
same,Potency,[6],"inconclusive: 49.7 µM [cytotoxic, partial curve, poor fit]"
same,activation,[2]; [18],inconclusive: 20.7% [at 94.8 µM]
same,Potency,[7],"inconclusive: 62.5 µM [cytotoxic, partial curve, poor fit]"
same,Potency,[8],"inconclusive: 44.3 µM [falling, partial curve, poor fit]"
same,Potency,[9],"inconclusive: 62.5 µM [cytotoxic, partial curve, poor fit]"
CN(C)CC/C=C1/c2ccccc2COc2ccc(CC(=O)O)cc21,Potency,[1],"inconclusive: 23.7 µM [falling, partial curve]"
same,Potency,[8],inactive
same,Potency,[10],"inconclusive: 1.19 µM [cytotoxic, full curve, poor fit]"
same,Potency,[11],"inconclusive: 18.8 µM [falling, partial curve, poor fit]"
same,"activity change, negative = inhibition",[12],inconclusive: -3.46%
CC(=O)CC(=O)Nc1ccccc1C,activation,[4],inconclusive: 0.211% [at 78.9 µM]
same,"ratio activity, negative = inhibition",[5]; at 62.6 µM (top of the series),inactive: -3.03%
same,"ratio activity, negative = inhibition",[5]; [19],inconclusive: 12.2% [at 81.1 µM]
same,Potency,[6],inactive
same,activation,[2]; [18],inconclusive: 12.2%
same,activation,[2]; at 94.8 µM (top of the series),inactive: 5.7%
same,Potency,[13],inactive
same,Potency,[12],inactive
CC(=O)Nc1ccc(CC(=O)O)cc1,Potency,[4],inactive
same,Potency,[5]; [19],inactive
NNc1nc(-c2ccc([N+](=O)[O-])cc2)cs1,Potency,[4],"inconclusive: 30.9 µM [cytotoxic, partial curve, poor fit]"
same,Potency,[5]; [19],"inconclusive: 19.5 µM [rising, partial curve]"
same,Potency,[2]; [18],active: 9.69 µM
same,Potency,[14],"inconclusive: 19.3 µM [cytotoxic, full curve]"
same,Potency,[7],"inconclusive: 38.9 µM [cytotoxic, partial curve, poor fit]"
same,Potency,[8],inconclusive: 36 µM
same,Potency,[9],"inconclusive: 24.5 µM [cytotoxic, partial curve]"
same,Potency,[15],"inconclusive: 61.6 µM [rising, partial curve, poor fit]"
same,Potency,[10],"inconclusive: 27.5 µM [cytotoxic, partial curve]"
same,"ratio activity, negative = inhibition",[16],inconclusive: -41.3%
same,Potency,[17],"inconclusive: 19.5 µM [inhibitor, partial curve]"
same,Potency,[13],"inconclusive: 3.89 µM [cytotoxic, partial curve, poor fit]"
same,activation,[3],inconclusive: 7.84%
same,activation,[11],inconclusive: -9.65%
